Laboratory results reported in the GPR68 mutational scans of Howard et al. (2025).

B1: GPR68, Q15743 (parent)
chain: MGNITADNSSMSCTIDHTIHQTLAPVVYVTVLVVGFPANCLSLYFGYLQIKARNELGVYLCNLTVADLFYICSLPFWLQYVLQHDNWSHGDLSCQVCGILLYENIYISVGFLCCISVDRYLAVAHPFRFHQFRTLKAAVGVSVVIWAKELLTSIYFLMHEEVIEDENQHRVCFEHYPIQAWQRAINYYRFLVGFLFPICLLLASYQGILRAVRRSHGTQKSRKDQIQRLVLSTVVIFLACFLPYHVLLLVRSVWEASCDFAKGVFNAYHFSLLLTSFNCVADPVLYCFVSETTHRDLARLRGACLAFLTCSRTGRAREAYPLGAPEASGKSGAQGEEPELLTKLHPAFQTPNSPGSGGFPTGRLA

Key:
[1] = variants of: B1; assay: cAMP reporter score (Enrich2 score, wild type = 0); higher = more signal; HEK293T, FACS bins
[2] = variants of: B1; assay: surface expression score (Enrich2 score, wild type = 0); higher = more signal; HEK293T, FACS bins

| Variant | cAMP reporter score ([1]; pH 5.5) | cAMP reporter score ([1]; pH 6) | cAMP reporter score ([1]; pH 6, modulator: ogerin) | cAMP reporter score ([1]; pH 6.5, modulator: ogerin) | surface expression score [2] |
| --- | --- | --- | --- | --- | --- |
| T342E | 0.455 | 0.495 | 0.043 | -0.059 | 0.255 |
| T342F | 0.042 |  | 0.263 | 0.327 | -0.597 |
| T342G | 0.059 | 1.02 | 0.24 | 0.929 | 1.43 |
| T342H | 0.341 | 0.485 | 1.18 | 1.23 | 1.77 |
| T342I | -0.113 | 0.066 | -0.122 | -0.493 | -0.181 |
| T342K | 0.539 | 0.26 | 0.589 | 1.64 | 1.56 |
| T342L | 1.37 | -0.065 | 1.04 | 1.37 | 0.521 |
| T342M | 1.13 | 0.103 | 1.34 | 0.501 | 2.07 |
| T342N | -0.211 | 0.138 | 0.525 | 0.65 | 0.59 |
| T342P | 0.673 | 1.38 | 1.47 | 1.24 | 0.904 |
| T342Q | 0.392 | -0.039 | 0.492 | 0.606 | 0.774 |
| T342R | 0.839 | 0.588 | 1.57 | 0.668 | 0.415 |
| T342S | 0.273 | -0.382 | 0.684 | 1.02 | 0.453 |
| T342V | 1.65 |  | 0.946 | 2.4 | 0.892 |
| T342W | 0.642 | -0.093 | 0.361 | -0.367 | -0.045 |
| T342Y | 1.6 | 1.67 | 1.26 | 2.21 | 1.3 |

| Variant | cAMP reporter score ([1]; pH 5.5) | cAMP reporter score ([1]; pH 6) | cAMP reporter score ([1]; pH 6, modulator: ogerin) | cAMP reporter score ([1]; pH 6.5, modulator: ogerin) | surface expression score [2] |
| --- | --- | --- | --- | --- | --- |
| T342_K343insG | -0.704 | 0.435 | -0.207 | -0.986 | -0.612 |
| T342_K343insGS | 0.682 | 1.42 | 1.18 | 1.48 | 1.57 |
| T342del | 0.05 | -0.87 | 0.084 | -0.176 | 0.605 |
| K343_L344del | -0.013 | 0.76 | 0.628 | 0.927 | 0.597 |
| K343_L344insGSG | 0.296 |  | 0.564 | 0.383 | 0.527 |
| K343del | 1.63 | -0.533 | -0.439 |  | -0.296 |
| L344_H345del | 0.545 | 1.78 | 0.163 | 0.806 | 1.06 |
| L344_H345insGSG | 1.01 |  | 1.02 | 1.16 | 0.862 |
| L344_P346del | 0.617 | 0.173 | 1.03 | 1.11 | 0.527 |
| H345_A347del | 0.13 | -1.3 | -0.129 | 0.408 | -0.056 |
| H345_P346insG | 1.17 | 1.88 | 0.995 | 0.935 | 0.808 |
| H345_P346insGS | 1.33 | 0.819 | 1.16 | 1.65 | 1.68 |
| H345del | -0.49 | -0.729 | -1.11 | -0.81 | -0.45 |
| P346_A347insG | 1.91 |  | 1.15 | 0.896 | 1.98 |
| P346_A347insGS | -0.019 | 0.453 | -0.238 | -0.058 | 0.643 |

The least precise scores are not listed. Two further conditions of the source, in which the scores hardly spread, are not listed. Read del as a deletion of the residues named and ins as an insertion between two positions. For some assays here: The data file names ogerin without a concentration.
